# The other results are listed elsewhere or left out.
# B1: Codakine (Codakia orbicularis), Q3KVL7_9BIVA (protein)
# chain: MKILVAVFLVLVVVGTAAAGCPDGWTQFLDLCYIYQSAKASWASAQSSCQALGGILAEPDTACENEVLIHMCRENGDAGSFGPWLGGQKVGGAWQWSSSGAAFDYLRWGPNEPNNSGGNEDCLHYNWLSWNDLRCHYQASYLCQRAAE
# Experiments:
# Experiment in all cases: glycan array binding signal (z-score within array); higher = stronger binding
# Settings in all cases: glycan notation: IUPAC condensed, linker removed
# [1] = target: Fuc(a1-2)Gal
# Procedure, shortened: (§1)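 Arrays were curated from the Consortium for Functional Glycomics database, 3228 in total, and kept only where the protein sequence was available. Binding is expressed as a within-array Z-score. This score was averaged across arrays of the same protein sequence at different concentrations or buffers and across linkers, and negative values can be read as non-binding.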
# [2] = target: Fuc(a1-2)Gal(b1-3)GalNAc
# Procedure, shortened: as §1
# [3] = target: Fuc(a1-2)Gal(b1-3)GalNAc(b1-3)Gal
# Procedure, shortened: as §1
# [4] = target: Fuc(a1-2)Gal(b1-3)GalNAc(b1-3)Gal(a1-4)Gal(b1-4)Glc
# Procedure, shortened: as §1
# [5] = target: Fuc(a1-2)Gal(b1-3)GalNAc(b1-4)[Neu5Ac(a2-3)]Gal(b1-4)Glc
# Procedure, shortened: as §1
# [6] = target: Fuc(a1-2)Gal(b1-3)GlcNAc
# Procedure, shortened: as §1
# [7] = target: Fuc(a1-2)Gal(b1-3)GlcNAc(b1-3)Gal(b1-4)Glc
# Procedure, shortened: as §1
# [8] = target: Fuc(a1-2)Gal(b1-3)[Fuc(a1-4)]GlcNAc
# Procedure, shortened: as §1
# [9] = target: Fuc(a1-2)Gal(b1-4)Glc
# Procedure, shortened: as §1
# [10] = target: Fuc(a1-2)Gal(b1-4)Glc6S
# Procedure, shortened: as §1
# [11] = target: Fuc(a1-2)Gal(b1-4)GlcNAc
# Procedure, shortened: as §1
# [12] = target: Fuc(a1-2)Gal(b1-4)GlcNAc(b1-3)Gal(b1-4)GlcNAc
# Procedure, shortened: as §1
# [13] = target: Fuc(a1-2)Gal(b1-4)GlcNAc(b1-3)Gal(b1-4)GlcNAc(b1-3)Gal(b1-4)GlcNAc
# Procedure, shortened: as §1
# [14] = target: Fuc(a1-2)Gal(b1-4)GlcNAc6S
# Procedure, shortened: as §1
# [15] = target: Fuc(a1-2)Gal(b1-4)[Fuc(a1-3)]GlcNAc
# Procedure, shortened: as §1
# [16] = target: Fuc(a1-2)Gal(b1-4)[Fuc(a1-3)]GlcNAc(b1-3)Gal(b1-4)[Fuc(a1-3)]GlcNAc
# Procedure, shortened: as §1
# [17] = target: Fuc(a1-2)Gal(b1-4)[Fuc(a1-3)]GlcNAc(b1-3)Gal(b1-4)[Fuc(a1-3)]GlcNAc(b1-3)Gal(b1-4)[Fuc(a1-3)]GlcNAc
# Procedure, shortened: as §1
# [18] = target: Fuc(a1-2)Gal6S(b1-4)Glc
# Procedure, shortened: as §1
# [19] = target: Fuc(a1-2)Gal6S(b1-4)Glc6S
# Procedure, shortened: as §1
# [20] = target: Fuc(a1-2)Gal6S(b1-4)GlcNAc
# Procedure, shortened: as §1
# [21] = target: Fuc(a1-2)[Gal(a1-3)]Gal
# Procedure, shortened: as §1
# [22] = target: Fuc(a1-2)[Gal(a1-3)]Gal(b1-3)GlcNAc
# Procedure, shortened: as §1
# [23] = target: Fuc(a1-2)[Gal(a1-3)]Gal(b1-4)Glc
# Procedure, shortened: as §1
# [24] = target: Fuc(a1-2)[Gal(a1-3)]Gal(b1-4)GlcNAc
# Procedure, shortened: as §1
# [25] = target: Fuc(a1-2)[Gal(a1-3)]Gal(b1-4)[Fuc(a1-3)]GlcNAc
# Procedure, shortened: as §1
# [26] = target: Fuc(a1-2)[Gal(a1-4)]Gal(b1-4)GlcNAc
# Procedure, shortened: as §1
# [27] = target: Fuc(a1-2)[GalNAc(a1-3)]Gal
# Procedure, shortened: as §1
# [28] = target: Fuc(a1-2)[GalNAc(a1-3)]Gal(b1-3)GlcNAc
# Procedure, shortened: as §1
# [29] = target: Fuc(a1-2)[GalNAc(a1-3)]Gal(b1-4)Glc
# Procedure, shortened: as §1
# [30] = target: Fuc(a1-2)[GalNAc(a1-3)]Gal(b1-4)GlcNAc
# Procedure, shortened: as §1
# [31] = target: Fuc(a1-2)[GalNAc(a1-3)]Gal(b1-4)[Fuc(a1-3)]GlcNAc
# Procedure, shortened: as §1
# [32] = target: Fuc(a1-2)[GalNAc(a1-4)]Gal(b1-4)GlcNAc
# Procedure, shortened: as §1
# [33] = target: Fuc(a1-2)[GalNAc(b1-3)]Gal
# Procedure, shortened: as §1
# [34] = target: Fuc(a1-3)GlcNAc
# Procedure, shortened: as §1
# [35] = target: Fuc(a1-3)[Gal(b1-4)]Glc6S
# Procedure, shortened: as §1
# [36] = target: Fuc(a1-3)[Gal(b1-4)]GlcNAc
# Procedure, shortened: as §1
# [37] = target: Fuc(a1-3)[Gal(b1-4)]GlcNAc(b1-2)Man(a1-3)[Fuc(a1-3)[Gal(b1-4)]GlcNAc(b1-2)Man(a1-6)]Man(b1-4)GlcNAc(b1-4)GlcNAc
# Procedure, shortened: as §1
# [38] = target: Fuc(a1-3)[Gal(b1-4)]GlcNAc(b1-2)Man(a1-6)[Gal(b1-4)GlcNAc(b1-2)Man(a1-3)]Man(b1-4)GlcNAc(b1-4)GlcNAc
# Procedure, shortened: as §1
# [39] = target: Fuc(a1-3)[Gal(b1-4)]GlcNAc(b1-3)Gal(b1-3)[Fuc(a1-4)]GlcNAc
# Procedure, shortened: as §1
# [40] = target: Fuc(a1-3)[Gal(b1-4)]GlcNAc(b1-4)Gal(b1-4)[Fuc(a1-3)]GlcNAc
# Procedure, shortened: as §1
# [41] = target: Fuc(a1-3)[Gal(b1-4)]GlcNAc(b1-4)Gal(b1-4)[Fuc(a1-3)]GlcNAc(b1-4)Gal(b1-4)[Fuc(a1-3)]GlcNAc
# Procedure, shortened: as §1
# [42] = target: Fuc(a1-3)[Gal(b1-4)]GlcNAc6S
# Procedure, shortened: as §1
# [43] = target: Fuc(a1-3)[Gal3S(b1-4)]Glc6S
# Procedure, shortened: as §1
# [44] = target: Fuc(a1-3)[Gal3S(b1-4)]GlcNAc
# Procedure, shortened: as §1
# [45] = target: Fuc(a1-3)[Gal3S(b1-4)]GlcNAc6S
# Procedure, shortened: as §1
# [46] = target: Fuc(a1-3)[GalNAc(b1-4)]GlcNAc
# Procedure, shortened: as §1
# [47] = target: Fuc(a1-4)GlcNAc
# Procedure, shortened: as §1
# [48] = target: Fuc(b1-3)GlcNAc
# Procedure, shortened: as §1
# [49] = target: Gal(a1-2)Gal
# Procedure, shortened: as §1
# [50] = target: Gal(a1-3)Gal
# Procedure, shortened: as §1
# [51] = target: Gal(a1-3)Gal(b1-3)GlcNAc
# Procedure, shortened: as §1
# [52] = target: Gal(a1-3)Gal(b1-4)Glc
# Procedure, shortened: as §1
# [53] = target: Gal(a1-3)Gal(b1-4)GlcNAc
# Procedure, shortened: as §1
# [54] = target: Gal(a1-3)Gal(b1-4)[Fuc(a1-3)]GlcNAc
# Procedure, shortened: as §1
# [55] = target: Gal(a1-3)GalNAc
# Procedure, shortened: as §1
# [56] = target: Gal(a1-3)[Gal(a1-4)]Gal(b1-4)GlcNAc
# Procedure, shortened: as §1
# [57] = target: Gal(a1-4)Gal(b1-4)Glc
# Procedure, shortened: as §1
# [58] = target: Gal(a1-4)Gal(b1-4)GlcNAc
# Procedure, shortened: as §1
# [59] = target: Gal(a1-4)GlcNAc
# Procedure, shortened: as §1
# [60] = target: Gal(a1-6)Glc
# Procedure, shortened: as §1
# [61] = target: Gal(b1-2)Gal
# Procedure, shortened: as §1
# [62] = target: Gal(b1-3)Gal
# Procedure, shortened: as §1
# [63] = target: Gal(b1-3)Gal(b1-4)GlcNAc
# Procedure, shortened: as §1
# [64] = target: Gal(b1-3)GalNAc
# Procedure, shortened: as §1
# [65] = target: Gal(b1-3)GalNAc(b1-3)Gal(a1-4)Gal(b1-4)Glc
# Procedure, shortened: as §1
# [66] = target: Gal(b1-3)GalNAc(b1-4)Gal(b1-4)Glc
# Procedure, shortened: as §1
# [67] = target: Gal(b1-3)GalNAc(b1-4)[Neu5Ac(a2-3)]Gal(b1-4)Glc
# Procedure, shortened: as §1
# [68] = target: Gal(b1-3)GlcNAc
# Procedure, shortened: as §1
# [69] = target: Gal(b1-3)GlcNAc(b1-2)Man(a1-3)[Gal(b1-3)GlcNAc(b1-2)Man(a1-6)]Man(b1-4)GlcNAc(b1-4)GlcNAc
# Procedure, shortened: as §1
# [70] = target: Gal(b1-3)GlcNAc(b1-3)Gal(b1-3)GlcNAc
# Procedure, shortened: as §1
# [71] = target: Gal(b1-3)GlcNAc(b1-3)Gal(b1-4)Glc
# Procedure, shortened: as §1
# [72] = target: Gal(b1-3)GlcNAc(b1-3)Gal(b1-4)GlcNAc
# Procedure, shortened: as §1
# [73] = target: Gal(b1-3)[Fuc(a1-4)]GlcNAc
# Procedure, shortened: as §1
# [74] = target: Gal(b1-3)[Fuc(a1-4)]GlcNAc(b1-3)Gal(b1-3)[Fuc(a1-4)]GlcNAc
# Procedure, shortened: as §1
# [75] = target: Gal(b1-3)[Fuc(a1-4)]GlcNAc(b1-3)Gal(b1-4)GlcNAc
# Procedure, shortened: as §1
binder,measurement,setting,value
B1,glycan array binding signal (z-score),[1],-0.329
same,glycan array binding signal (z-score),[2],-0.267
same,glycan array binding signal (z-score),[3],-0.266
same,glycan array binding signal (z-score),[4],-0.217
same,glycan array binding signal (z-score),[5],-0.317
same,glycan array binding signal (z-score),[6],-0.3
same,glycan array binding signal (z-score),[7],-0.31
same,glycan array binding signal (z-score),[8],-0.314
same,glycan array binding signal (z-score),[9],-0.26
same,glycan array binding signal (z-score),[10],-0.218
same,glycan array binding signal (z-score),[11],-0.224
same,glycan array binding signal (z-score),[12],-0.213
same,glycan array binding signal (z-score),[13],-0.235
same,glycan array binding signal (z-score),[14],-0.046
same,glycan array binding signal (z-score),[15],-0.3
same,glycan array binding signal (z-score),[16],-0.141
same,glycan array binding signal (z-score),[17],-0.061
same,glycan array binding signal (z-score),[18],-0.328
same,glycan array binding signal (z-score),[19],-0.044
same,glycan array binding signal (z-score),[20],-0.278
same,glycan array binding signal (z-score),[21],-0.293
same,glycan array binding signal (z-score),[22],-0.284
same,glycan array binding signal (z-score),[23],-0.356
same,glycan array binding signal (z-score),[24],-0.342
same,glycan array binding signal (z-score),[25],-0.229
same,glycan array binding signal (z-score),[26],-0.314
same,glycan array binding signal (z-score),[27],-0.333
same,glycan array binding signal (z-score),[28],-0.372
same,glycan array binding signal (z-score),[29],-0.323
same,glycan array binding signal (z-score),[30],-0.324
same,glycan array binding signal (z-score),[31],-0.092
same,glycan array binding signal (z-score),[32],-0.327
same,glycan array binding signal (z-score),[33],-0.351
same,glycan array binding signal (z-score),[34],-0.384
same,glycan array binding signal (z-score),[35],-0.242
same,glycan array binding signal (z-score),[36],-0.333
same,glycan array binding signal (z-score),[37],1.67
same,glycan array binding signal (z-score),[38],6.48
same,glycan array binding signal (z-score),[39],-0.279
same,glycan array binding signal (z-score),[40],-0.321
same,glycan array binding signal (z-score),[41],-0.314
same,glycan array binding signal (z-score),[42],-0.11
same,glycan array binding signal (z-score),[43],-0.121
same,glycan array binding signal (z-score),[44],-0.188
same,glycan array binding signal (z-score),[45],0.159
same,glycan array binding signal (z-score),[46],-0.319
same,glycan array binding signal (z-score),[47],-0.265
same,glycan array binding signal (z-score),[48],-0.361
same,glycan array binding signal (z-score),[49],-0.314
same,glycan array binding signal (z-score),[50],-0.294
same,glycan array binding signal (z-score),[51],0.072
same,glycan array binding signal (z-score),[52],-0.242
same,glycan array binding signal (z-score),[53],-0.107
same,glycan array binding signal (z-score),[54],-0.123
same,glycan array binding signal (z-score),[55],-0.298
same,glycan array binding signal (z-score),[56],-0.265
same,glycan array binding signal (z-score),[57],-0.176
same,glycan array binding signal (z-score),[58],-0.168
same,glycan array binding signal (z-score),[59],-0.191
same,glycan array binding signal (z-score),[60],-0.362
same,glycan array binding signal (z-score),[61],-0.123
same,glycan array binding signal (z-score),[62],-0.325
same,glycan array binding signal (z-score),[63],-0.318
same,glycan array binding signal (z-score),[64],-0.324
same,glycan array binding signal (z-score),[65],-0.42
same,glycan array binding signal (z-score),[66],-0.243
same,glycan array binding signal (z-score),[67],-0.107
same,glycan array binding signal (z-score),[68],-0.236
same,glycan array binding signal (z-score),[69],0.389
same,glycan array binding signal (z-score),[70],-0.329
same,glycan array binding signal (z-score),[71],-0.326
same,glycan array binding signal (z-score),[72],-0.257
same,glycan array binding signal (z-score),[73],-0.203
same,glycan array binding signal (z-score),[74],-0.077
same,glycan array binding signal (z-score),[75],-0.047
